In PubChem BioAssay AID624173 (National Center for Advancing Translational Sciences (NCATS), 2012):
The campaign covered roughly 410,000 compounds. About 490 (0.12%) were called active. This list was built around the results that the source calls inconclusive (neither active nor inactive); the mix of calls is not that of the screen. The call rests on the fitted dose curve; in most records, active means well fitted inhibition curve with a large enough effect; inconclusive means small, poorly fitted or top-dose-only effect; inactive means flat fitted curve, though single readings scatter. Potencies beside an inconclusive call are fits to weak or partial responses and may not hold up.

Target: pyruvate kinase (Trypanosoma brucei) (UniProt Q57TT1)
Assay: qHTS of Trypanosoma Brucei Inhibitors; further: nearly all actives have a fitted effect of over 50% in size
Conditions: TbPYK enzyme, Kinase-Glo Plus ATP luminescence, 45 min; series mostly up to 76.8 µM
Method in brief: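 Quantitative HTS: titrated library compounds versus trypanosomal pyruvate kinase in TEA buffer (pH 7.2) containing KCl, MgCl2, BSA and Tween-20. Reactions were initiated with ADP, 130 uM final. Kinase-Glo Plus luminescence was read after 45 min at RT.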
Potency means the concentration at half of the fitted maximal effect; tags describe the fitted curve by direction and shape.

Row | Structure (SMILES) | Potency
1 | Cc1ccc(CNC(=O)Nc2ccccc2)n1C | inactive
2 | O=C(Nc1ccccn1)c1cccs1 | inconclusive: 28.2 µM [inhibitor, single point]
3 | CC(=O)c1cccc2c(O)c(C3=Nc4ccccc4C3=O)[nH]c12 | inconclusive: 15.8 µM [inhibitor, partial curve, poor fit]
4 | Cc1ccc(NC2=C(NC(=O)c3ccccc3)C(=O)c3ccccc3C2=O)cc1Cl | inconclusive: 14.1 µM [inhibitor, partial curve]
5 | Cc1ccc(NC(=O)N/C=C/c2ccco2)cc1C | inactive
6 | Cc1ccc(NC(=O)c2ccccc2)cc1OC(=O)c1ccccc1 | inconclusive: 39.8 µM [inhibitor, single point]
7 | O=C(Nc1cccc(C(=O)O)c1)/C(=C\c1ccco1)NC(=O)c1ccccc1Cl | inconclusive: 15.8 µM [inhibitor, partial curve]
8 | Cc1ccc(NC(=O)/C(C#N)=C/c2cc(C)n(-c3ccc(Br)cc3)c2C)cc1C | inconclusive: 31.6 µM [inhibitor, single point]
9 | COc1ccc(S(=O)(=O)N2CCOCC2)cc1NC(=O)CCNC(=O)c1ccc(Br)cc1 | inconclusive: 12.6 µM [inhibitor, partial curve]
10 | Cc1nc(Nc2ccc(Cl)c(Cl)c2)sc1C(=O)Nc1ccccc1 | inconclusive: 28.2 µM [inhibitor, partial curve, poor fit]
11 | CCC(C)n1c(-c2cccc(S(=O)(=O)N(CC)CC)c2)n[nH]c1=S (centres undefined) | inconclusive: 6.31 µM [inhibitor, full curve, poor fit]
12 | COc1ccc(C2=Nc3ccccc3NC(=O)C2N(Cc2ccccc2)C(=O)C2=NNC(=O)CC2)cc1 (centres undefined) | inactive
13 | COc1ccc(-n2c(-c3ccc(C)cc3)n[nH]c2=S)cc1 | inconclusive: 2.82 µM [inhibitor, full curve, poor fit]
14 | Cc1cccc(-n2c(-c3ccco3)n[nH]c2=S)c1 | inconclusive: 12.6 µM [inhibitor, partial curve]
15 | Fc1ccccc1/C=N/n1c(-c2cccnc2)n[nH]c1=S | inconclusive: 22.4 µM [inhibitor, partial curve, poor fit]
16 | COc1ccc(-c2cn3c(C)c(C(=O)Nc4cccc(C)n4)sc3n2)cc1 | inconclusive: 17.8 µM [inhibitor, partial curve, poor fit]
17 | O=C(Cn1c(=S)[nH]c2ccccc21)c1ccccc1 | inconclusive: 10 µM [inhibitor, partial curve, poor fit]
18 | Cc1cccc(OCCCC(=O)N2CCCc3ccccc32)c1C | inactive
19 | CN1CCN(/N=C/c2ccc(N(C)c3ccccc3)cc2)CC1 | inactive
20 | CCC(=O)Nc1ccc(NC(=O)c2oc3ccccc3c2C)cc1 | inactive
21 | Cc1cc(C)c2nc(NNC(=O)c3cc(=O)c4ccccc4o3)sc2c1 | inconclusive: 28.2 µM [inhibitor, partial curve, poor fit]
22 | C/C(=N\NC(=O)c1ccc2c(c1)OCO2)c1ccco1 | inconclusive: 25.1 µM [inhibitor, partial curve, poor fit]
23 | O=C1N=C(N2CCCC2C(=O)O)S/C1=C\c1ccco1 (centres undefined) | inconclusive: 39.8 µM [inhibitor, single point]

Row | Structure (SMILES) | Potency
24 | COc1ccccc1NCC(O)COc1ccc(C(C)(C)C)cc1 (centres undefined) | inactive
25 | N#CC(C#N)=C1C=CC=CN1/C(=C\c1ccccc1Cl)C(=O)c1ccccc1 | inconclusive: 14.1 µM [inhibitor, partial curve, poor fit]
26 | N#C/C(C(N)=O)=c1/ccc2c(c1)N1C3=C(CCCC3)CC3CCCCC31N=2 (centres undefined) | inconclusive: 31.6 µM [inhibitor, partial curve, poor fit]
27 | CN1C(=O)C(=Cc2ccc(OCCN(C)c3ccccn3)cc2)C(=O)N(C)C1=O | inactive
28 | CC(C)N=C1NN=C(c2ccc(F)cc2)CS1 | inconclusive: 50.1 µM [inhibitor, single point]
29 | COc1ccc(/C=C/c2cc(-c3ccc(C)cc3)o[n+]2C)cc1 | inactive
30 | Cc1ccc(NC(=O)CCS(=O)(=O)c2cccc3nonc23)cc1Cl | inactive
31 | CC(=O)Nc1ccc(S(=O)(=O)NNC(=O)COc2cccc(C)c2)cc1 | inconclusive: 31.6 µM [inhibitor, single point]
32 | COc1cc(CN2C(=O)NC(=O)C3(Cc4cc(C)ccc4N(C)C3)C2=O)cc(OC)c1 (centres undefined) | inconclusive: 39.8 µM [inhibitor, single point]
33 | COC(=O)c1ccc(-c2ccc(F)cc2)nc1C | inactive
34 | Cn1c(-c2cc3c(C(F)(F)F)nn(C)c3s2)n[nH]c1=S | inconclusive: 5.01 µM [inhibitor, partial curve]
35 | COc1ccccc1-n1c(-c2cc(-c3ccco3)[nH]n2)n[nH]c1=S | inconclusive: 14.1 µM [inhibitor, partial curve]
36 | CN(c1ccc(C(=O)N2CCN(c3ccc(F)cc3)CC2)cc1)S(C)(=O)=O | inconclusive: 35.5 µM [inhibitor, single point]
37 | O=C(O)CCCC(=O)Nc1ccc(OCc2nc3ccccc3s2)cc1 | inconclusive: 12.6 µM [inhibitor, single point]
38 | CCC1Oc2ccccc2C(=O)N(CC(=O)c2ccc3c(c2)OCCO3)C1=O (centres undefined) | inactive
39 | COc1ccc(C=C2C(=O)NC(=S)NC2=O)cc1OC | inconclusive: 35.5 µM [inhibitor, partial curve, poor fit]
40 | CCOc1ccc(-c2nnc3ccc(SCc4ccc(C(=O)OC)o4)nn23)cc1 | inconclusive: 15.8 µM [inhibitor, partial curve, poor fit]
41 | Cc1nc(CC(=O)c2ccc(O)cc2O)cs1 | inconclusive: 35.5 µM [inhibitor, single point]
42 | O=c1[nH]c(=O)n(Cc2ccco2)c(O)c1C=NCc1ccco1 | inconclusive: 50.1 µM [inhibitor, single point]
43 | c1c2c(cc3sc(N4CCOCC4)nc13)OCO2 | inconclusive: 20 µM [inhibitor, partial curve]
44 | Cc1ccc(-c2cc(C(=O)Nc3cccc(S(=O)(=O)N(C)C)c3)c3ccccc3n2)o1 | inconclusive: 22.4 µM [inhibitor, partial curve]
45 | Cc1ccc(CNC(=O)CCC2CCCN(Cc3c(C)nn(C(C)C)c3C)C2)o1 (centres undefined) | inactive
46 | Cn1nnnc1SCC(=O)NCC(=O)c1ccccc1 | inconclusive: 50.1 µM [inhibitor, single point]

Row | Structure (SMILES) | Potency
47 | CCOC(=O)c1c(N2C(=O)C3C4C=CC(O4)C3C2=O)sc2c1CCCC2 (centres undefined) | inconclusive: 31.6 µM [inhibitor, single point]
48 | CC(C)n1c(SCC(=O)Nc2nncs2)nnc1-c1ccco1 | inconclusive: 35.5 µM [inhibitor, partial curve, poor fit]
49 | Cc1ccc(CN(C(=O)Cn2nnc3ccccc32)C(C(=O)NCc2ccco2)c2cccs2)cc1 (centres undefined) | inactive
50 | CC(=O)c1c(C)nc(-c2ccccc2)n1O | inconclusive: 25.1 µM [inhibitor, partial curve, poor fit]
51 | CN(C)C(=O)c1cc(C(=O)c2ccc(F)cc2C(F)(F)F)c[nH]1 | inactive
52 | CCCCCc1cc(=O)oc2c(C(CCN3CCCC3)c3cc(OC)c(OC)c(OC)c3)c(OC)cc(OC)c12 (centres undefined) | inactive
53 | NC(=O)C1CCN(c2nc(-c3ccccc3F)cs2)CC1 | inconclusive: 20 µM [inhibitor, partial curve, poor fit]
54 | Cc1ccc2c(c1)=C/C(=C\c1c(O)[nH]c(=O)[nH]c1=O)C(=O)N=2 | inconclusive: 14.1 µM [inhibitor, partial curve]
55 | CCOc1ccc(-c2cc(C)n3nc(C(N)=O)cc3n2)cc1 | inconclusive: 35.5 µM [inhibitor, partial curve, poor fit]
56 | O=C(NC(=S)Nc1ccccc1N1CCOCC1)c1ccco1 | inactive
57 | Cc1c(C(=O)N(C)C(C)c2ccccn2)oc2c(F)cccc12 (centres undefined) | inactive
58 | O=C(CSc1nnc(-c2ccco2)n1CC1CCCO1)c1ccccc1 (centres undefined) | inconclusive: 39.8 µM [inhibitor, partial curve, poor fit]
59 | COC(=O)c1cccc(NC(=O)/C(=C\c2ccco2)NC(=O)c2ccco2)c1 | inconclusive: 39.8 µM [inhibitor, single point]
60 | COc1cccc(-n2c(-c3ccc4[nH]c(C)c(C)c4c3)n[nH]c2=S)c1 | active: 7.94 µM
61 | CCc1ccccc1NS(=O)(=O)c1ccc2c(c1)CC(=O)N2 | inactive
62 | CC(C)(C)C(=O)COC(=O)c1ccc(O)cc1 | inactive
63 | COc1ccccc1NC(=O)c1c(NCc2ccc(C)o2)sc2c1CCCCC2 | inconclusive: 15.8 µM [inhibitor, partial curve, poor fit]
64 | NC(=O)COc1ccc(/C=C2\C(=O)ON=C2c2ccccc2)cc1 | inconclusive: 12.6 µM [inhibitor, partial curve, poor fit]
65 | Cc1ccc(C(=O)NC(=S)N2CC(C)OC(C)C2)cc1[N+](=O)[O-] (centres undefined) | inconclusive: 28.2 µM [inhibitor, partial curve, poor fit]
66 | COc1ccccc1CNc1nc(-c2cc(C)n(C)c2C)cs1 | inconclusive: 14.1 µM [inhibitor, partial curve, poor fit]
67 | CCn1c(-c2c(Cl)c(C)nn2C)n[nH]c1=S | inconclusive: 10 µM [inhibitor, partial curve]
68 | Cc1ccc(-c2cc(-c3ccccc3)cc(-c3ccccc3)[n+]2-c2ccccc2)cc1 | inactive
69 | Cc1cc(NC(=O)c2ccccc2)n(-c2nc3ccccc3[nH]2)n1 | inactive
